The record followed here is publication PMC4709122 (Nature structural & molecular biology, 2015).

The assay addresses UBC9 (human SUMO E2, untagged) (human, UniProt P63279).
Chain of UniProt P63279 (P63279 whole entry): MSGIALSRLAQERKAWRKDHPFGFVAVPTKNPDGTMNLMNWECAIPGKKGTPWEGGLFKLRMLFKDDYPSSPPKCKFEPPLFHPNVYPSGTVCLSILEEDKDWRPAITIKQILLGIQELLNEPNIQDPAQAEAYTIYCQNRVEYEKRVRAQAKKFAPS

B1: SUMO2 (construct not stated for this experiment) (natural protein)
chain: not shown
B1 yielded a Kd of 140 nM.

One may read the Kd as the equilibrium constant for the complex coming apart. Lower therefore signals tighter binding.
